Test results reported in article PMC4336329 (PLoS ONE, 2015).
In all, about 310,000 compounds went through this assay and about 14,000 (4.5%) showed an effect of 50% or more. The effect is printed as a negative number. Some of the results follow.

The molecules below were run against human ether-à-go-go-related gene (hERG) potassium channel (human, UniProt Q12809) (assay: primary screen, population patch clamp on CHO cells stably expressing hERG).
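Also: peak tail current of the secondary pulse compared with the same well before compound.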

Sequence of human ether-à-go-go-related gene (hERG) potassium channel (Q12809 whole entry, looked up): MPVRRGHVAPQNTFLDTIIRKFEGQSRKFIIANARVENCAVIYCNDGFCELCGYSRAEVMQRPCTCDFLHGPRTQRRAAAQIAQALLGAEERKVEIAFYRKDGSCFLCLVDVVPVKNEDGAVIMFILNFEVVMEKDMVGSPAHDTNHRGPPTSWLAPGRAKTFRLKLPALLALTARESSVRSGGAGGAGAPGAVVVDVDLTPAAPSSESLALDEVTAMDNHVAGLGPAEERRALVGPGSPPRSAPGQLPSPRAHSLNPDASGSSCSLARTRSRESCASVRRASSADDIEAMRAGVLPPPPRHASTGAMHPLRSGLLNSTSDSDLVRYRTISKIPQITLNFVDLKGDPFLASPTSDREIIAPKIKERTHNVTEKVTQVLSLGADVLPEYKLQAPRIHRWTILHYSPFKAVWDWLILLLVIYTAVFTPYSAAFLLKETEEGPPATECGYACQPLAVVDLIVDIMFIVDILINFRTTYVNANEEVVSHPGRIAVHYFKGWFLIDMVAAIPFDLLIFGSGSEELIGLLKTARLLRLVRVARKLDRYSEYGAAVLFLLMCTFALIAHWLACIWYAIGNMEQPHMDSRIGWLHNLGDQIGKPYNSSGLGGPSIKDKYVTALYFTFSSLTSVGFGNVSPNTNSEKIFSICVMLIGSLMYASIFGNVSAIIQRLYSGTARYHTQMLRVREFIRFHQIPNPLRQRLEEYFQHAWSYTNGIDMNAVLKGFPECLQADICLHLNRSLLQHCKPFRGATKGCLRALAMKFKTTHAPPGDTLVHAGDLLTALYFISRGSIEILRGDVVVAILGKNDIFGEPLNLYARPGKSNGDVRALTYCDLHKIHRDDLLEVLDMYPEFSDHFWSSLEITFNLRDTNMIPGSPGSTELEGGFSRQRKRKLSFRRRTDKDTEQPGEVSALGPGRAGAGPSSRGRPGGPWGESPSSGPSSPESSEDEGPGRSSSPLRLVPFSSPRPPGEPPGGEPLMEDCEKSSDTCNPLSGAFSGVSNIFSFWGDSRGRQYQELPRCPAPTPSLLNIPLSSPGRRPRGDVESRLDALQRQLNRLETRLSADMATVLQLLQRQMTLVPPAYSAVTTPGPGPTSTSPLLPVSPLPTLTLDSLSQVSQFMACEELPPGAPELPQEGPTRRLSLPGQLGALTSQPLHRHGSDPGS

| Compound | hERG current change (%, negative = inhibition) at 10uM [%] |
| --- | --- |
| C=CCN(CC=C)C(=S)NC(=O)c1ccc(C)c(Br)c1 | -12.6 |
| O=C(Nc1ccc(S(=O)(=O)N2CCCCCC2)cc1)C1CCCO1 (stereo not drawn) | -36.7 |
| COc1cccc(-n2cnc3cccc(N)c32)c1 | 8.67 |
| Fc1ccc(C(c2nnnn2C2CCCC2)N2CCc3ccccc32)cc1 (stereo not drawn) | -5.67 |
| CCC(=O)Nc1cc(-c2nn(CC(=O)N3CCCCC3)c(=O)c3ccccc23)ccc1N1CCOCC1 | 3.05 |
| O=C(NC1CCCC1)c1ccc(CS(=O)(=O)Cc2ccccc2Cl)o1 | -23.4 |
| COc1ccc(NC(=O)COC(=O)C(CC(C)C)N2C(=O)C3CC=CCC3C2=O)cc1Cl (stereo not drawn) | -9.61 |
| CCOCC(=O)Nc1ccc(S(=O)(=O)NCCc2ccccc2)cc1 | -22.9 |
| CCOC(=O)C1CCN(c2ccc(C(=O)O)cc2[N+](=O)[O-])CC1 | -3.56 |
| COc1cc(CNCc2cccs2)cc(Br)c1OC.Cl | -4.76 |
| CSc1nn2c(C(F)(F)F)cc(C(F)(F)F)nc2c1C(=O)O | 10.4 |
| O=C(CCNC(=O)Cn1ccc2ccccc2c1=O)NCc1ccccn1 | -5.54 |
| CN(C)S(=O)(=O)c1ccc(S(=O)(=O)NCCN2CCOCC2)cc1.Cl | 13.9 |
| Cl.O=C(c1cccc(S(=O)(=O)N2CCOCC2)c1)N1CCN(Cc2ccc3c(c2)OCO3)CC1 | -34.8 |
| O=C1N(CN2CCC3(CC2)OCCO3)c2ccccc2C12OCCCO2 | -5.2 |
| COc1ccc(CCC(=O)NNC(=O)Nc2ccc(C(C)C)cc2)cc1 | 23.8 |
| CCC(CC)C(=O)Nc1c2c(nn1-c1ccc(F)cc1)CS(=O)(=O)C2 | 5.88 |
| CCCCCCCCNC(=O)c1cccnc1SCC(=O)Nc1ccccc1OC | 2.4 |
| NC(=O)c1ccc(CN2CCc3ccccc3C2)cc1 | 8.4 |
| Cc1ccc(S(=O)(=O)NCC(=O)N(CC(=O)NCc2ccco2)C2CCCC2)cc1 | 5.84 |
| COc1cccc(OC)c1C(=O)Nc1ccc(S(=O)(=O)Nc2cc(C)nc(C)n2)cc1 | 12.3 |
| COC(=O)c1sc2cc(C(F)(F)F)cnc2c1-c1ccccc1 | -13.5 |
| CCOC(=O)c1ccc(NC(=O)NCc2cccnc2)cc1 | 10.1 |
| CCOC(=O)C1CCCC(NS(=O)(=O)c2ccc(NC(C)=O)cc2)C1 (stereo not drawn) | -2.41 |
